Results published in PubChem BioAssay AID894 (National Center for Advancing Translational Sciences (NCATS), 2007).
In all, about 150,000 compounds went through this assay and about 6,500 (4.3%) were called active. Inconclusive means that the source gave no clear call. Such entries were picked first, then a sample of the others. The call rests on the fitted dose curve; in most records, active means well fitted inhibition curve with a large enough effect (not every such curve was filed as active); inconclusive means small, poorly fitted or top-dose-only effect, or another doubt; inactive means no such curve, though single readings can be large or run the other way. No potency is given beside an inconclusive call; the fits are too rough.

Molecular target: 15-hydroxyprostaglandin dehydrogenase [NAD(+)] (Homo sapiens) (UniProt P15428)
Chain of UniProt P15428 (P15428 whole entry, looked up): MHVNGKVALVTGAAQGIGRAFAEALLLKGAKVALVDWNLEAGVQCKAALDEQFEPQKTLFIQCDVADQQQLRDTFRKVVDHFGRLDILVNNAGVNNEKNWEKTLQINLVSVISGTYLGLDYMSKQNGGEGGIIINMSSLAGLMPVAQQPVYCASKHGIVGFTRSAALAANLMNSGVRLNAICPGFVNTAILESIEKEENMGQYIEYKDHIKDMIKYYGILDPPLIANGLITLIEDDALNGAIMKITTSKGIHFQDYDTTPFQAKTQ
Assay: qHTS Assay for Inhibitors of HPGD (15-Hydroxyprostaglandin Dehydrogenase)
Details: purified HPGD, NADH fluorescence kinetic, PGE2 substrate; activity change, negative = inhibition: active compounds read low
Summary of the method: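 20 nM HPGD preincubated 15 min at room temperature with compound in 50 mM Tris-HCl pH 8, 0.01% Tween 20. Started with 1 mM NAD+ and 30 uM prostaglandin E2; NADH fluorescence (360/450 nm) read 5 times over 30-s intervals, last minus first.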
On the % scale 0 is the no-effect control and ±100 the full control effect; potency means the concentration at half of the fitted maximal effect; tags describe the fitted curve by direction and shape.

Structure (SMILES)	activity change, negative = inhibition	Potency
Cc1cc2ccccc2n1CCNC(=O)C(C)C	inactive: -3.19%	–
CC(C)(C)C(=O)Nc1cc2nn(-c3ccccc3)nc2cc1Cl	–	inconclusive [inhibitor, single point]
COc1ccc(C(=O)N2c3ccccc3C(=O)OC2c2ccc3c(c2)OCO3)cc1 (stereo unspecified)	–	inconclusive [inhibitor, partial curve]
CC1=NN(c2ccc(Br)cc2)C(=O)/C1=C/c1cccs1	–	active: 14.1 µM
O=C(Nc1ccc(CN2CCCCC2)cc1)c1ccc2c(c1)OCO2	–	active: 28.2 µM
CC(Nc1ccc(Br)cn1)c1cc(Cl)ccc1O (stereo unspecified)	–	inconclusive [inhibitor, single point]
c1cnc(Oc2ccc(-c3nnco3)cc2)cn1	inactive: -7.92%	–
CCOC(=O)c1[nH]n(-c2ccc(Cl)cc2)c(=O)c1C	inactive: -6.5%	–
C=CCOC(=O)C1=C(C)OC(N)=C(C#N)C1c1ccoc1 (stereo unspecified)	inactive: -15.3%	–
COC(=O)c1ccc(N2C(=O)CC(SCCN)C2=O)cc1 (stereo unspecified)	inactive: -6.08%	–
Cc1ccc2nc(NC(=O)CCn3c(=O)sc4ccccc43)sc2c1	inactive: -16.1%	–
CCCc1cc(C(=O)Nc2cc(Br)ccc2O)no1	–	inconclusive [inhibitor, partial curve]
COc1ccc(NS(=O)(=O)c2ccc3oc(Nc4ccc5c(c4)OCCO5)nc3c2)cc1	inactive: -24.9%	–
CCOc1ccc(/C=C/C(=O)c2cc(Br)ccc(=O)c2O)cc1	–	inconclusive [inhibitor, partial curve, poor fit]
C(=C\c1cccc2ccccc12)/c1nnc(-c2cccs2)o1	–	inconclusive [inhibitor, partial curve]
CCc1cc(=O)oc2cc3occ(-c4ccc(OC)c(F)c4)c3cc12	–	inconclusive [inhibitor, single point]
CCOc1cc(N2CCOCC2)c(OCC)cc1NC(=O)COC(=O)c1cccc2ccccc12	inactive: 2.38%	–
CSC1=C(C#N)C(c2ccc(C(C)C)cc2)CC(=O)N1 (stereo unspecified)	inactive: -5.18%	–
Cc1cccn2c(=O)c3cc(C(=O)N(C)C)n(C)c3nc12	–	inconclusive [inhibitor, partial curve]
CCC(C)NC(=O)CSc1nc(-c2cccs2)cc(C(F)(F)F)n1 (stereo unspecified)	–	inconclusive [inhibitor, partial curve]
COc1ccc(C2C(C#N)=C(N)N(c3sc4c(c3C#N)CCCC4)C3=C2C(=O)CC(C)(C)C3)cc1 (stereo unspecified)	–	inconclusive [inhibitor, partial curve]
CCCn1c(-c2ccc(F)cc2)nc2c(NCC3CCN(C)CC3)nc(C)nc21	–	inconclusive [inhibitor, partial curve]
COc1cccc(C(=O)Nc2ccc3nc(N4CCN(c5ncccn5)CC4)cc(C)c3c2)c1OC	–	inconclusive [inhibitor, partial curve]
COc1ccc(CNc2oc(-c3cccc4ccccc34)nc2C#N)cc1	–	inconclusive [inhibitor, partial curve]

Structure (SMILES)	activity change, negative = inhibition	Potency
Cc1nc2sccn2c1-c1csc(NCc2ccccc2)n1	inactive: -21%	–
CCCNC(=O)COC(=O)/C=C/c1ccc2c(c1)OCO2	–	inconclusive [inhibitor, partial curve]
N#Cc1nc(-c2ccc(OCc3ccccc3)cc2)oc1NCCN1CCOCC1	–	inconclusive [inhibitor, partial curve]
Cc1ccc(S(=O)(=O)c2nnn3c2nc(N2CCCCC2)c2ccccc23)cc1	–	inconclusive [inhibitor, partial curve]
CC(C)(C)C1CCc2c(sc(NC(=O)CSc3ncn[nH]3)c2C#N)C1 (stereo unspecified)	–	active: 14.1 µM
CCCOc1cccc(C(=O)NC(=S)Nc2ccccc2)c1	inactive: -20.2%	–
CCOc1ccc(N=C2NC(=O)S/C2=C\c2ccc(Cl)cc2)cc1	inactive: -15.8%	–
CC(=O)c1c(C)[nH]c(C(=O)CSc2nnc(-c3cccs3)n2Cc2ccccc2)c1C	–	inconclusive [inhibitor, partial curve]
O=C(O)c1cc(Cl)cc(Cc2cc(Cl)cc(C(=O)O)c2O)c1O	–	inconclusive [inhibitor, partial curve]
Cc1ccc(O)c(-c2cc(-c3ccccc3C)[nH]n2)c1	–	active: 22.4 µM
C=CCn1c(SCC(=O)NC2CCCC2)nc2scc(-c3ccco3)c2c1=O	–	inconclusive [inhibitor, partial curve]
O=C(c1ccco1)N1CCN(CCOCCOc2cccc3ccccc23)CC1	inactive: 3.25%	–
O=C1/C(=C\c2ccc(Br)o2)Cc2ccccc21	–	inconclusive [inhibitor, single point]
O=C(N/N=C/c1ccc(OCc2ccccc2)cc1)c1cccs1	–	inconclusive [inhibitor, partial curve]
NC(=S)NNC(N)=S	–	inconclusive [inhibitor, single point]
CCC/C=N/NC(=O)c1cc(Br)ccc1O	–	inconclusive [inhibitor, partial curve]
O=C(CSCc1ccc(Cl)cc1)N1CCN(Cc2ccc3c(c2)OCO3)CC1	inactive: -13.7%	–
Cc1cc(-c2ccc(N=Nc3cc(S(=O)(=O)O)c4ccccc4c3N)c(C)c2)ccc1N=Nc1cc(S(=O)(=O)O)c2ccccc2c1N	–	inconclusive [inhibitor, partial curve]
C/C=C/c1ccc(OCCOc2ccc(C=O)cc2OC)c(OC)c1	inactive: -16.6%	–
c1ccc(-c2noc(-c3ccco3)n2)nc1	inactive: 2.79%	–
CCOc1cc(/C=N/NC(=O)CSc2nncn2C)ccc1OCc1cccc(C)c1	–	inconclusive [inhibitor, partial curve]
CCOc1ccccc1NC(=O)C(OC(=O)c1ccccc1NS(=O)(=O)c1cccs1)c1ccccc1 (stereo unspecified)	inactive: -15.1%	–
O=C(Nc1ccc(Cl)c(Cl)c1)c1ccc(Cn2cc(Cl)cn2)cc1	–	inconclusive [inhibitor, partial curve]
COc1nc(N)c(S(=O)(=O)c2ccccc2C)cc1C#N	–	inconclusive [inhibitor, single point]

Structure (SMILES)	activity change, negative = inhibition	Potency
COc1ccc(-n2c(-c3ccco3)n[nH]c2=S)cc1	–	inconclusive [inhibitor, single point]
CCOc1ccccc1N(CC(=O)Nc1ccc2c(c1)OCO2)S(C)(=O)=O	inactive: -10.4%	–
O=C(CN1CCN(Cc2ccc3c(c2)OCO3)CC1)N1CCc2[nH]c3ccc(F)cc3c2C1	inactive: 3.05%	–
COc1ccc(NC(=O)C2C3CCC(C3)C2C(=O)O)cc1OC (stereo unspecified)	inactive: -0.181%	–
CCOC(=O)c1cn2nc(-c3ccc(OCC)cc3)cc2nc1C1CCN(C(=O)OC(C)(C)C)CC1	–	inconclusive [inhibitor, partial curve]
Nc1ccc(C(=O)n2c3ccccc3c3ccccc32)cc1	–	active: 31.6 µM
CCOC(=O)c1nn(-c2ccccc2)c2nc(-c3ccc(OC)cc3)c(C#N)c(=O)n12	–	inconclusive [inhibitor, partial curve]
CCCCCCC(=O)Nc1nc(C)c(-c2csc(Nc3ccccc3OC)n2)s1	–	inconclusive [inhibitor, partial curve, poor fit]
CCN1CCN(Cc2c(O)ccc3c(=O)c(-c4ccc(OC)c(OC)c4)c(C)oc23)CC1	–	inconclusive [inhibitor, partial curve]
CCc1ccc(S(=O)(=O)/N=C2/C=C(Sc3ncn[nH]3)C(=O)c3ccccc32)cc1	–	active: 1.58 µM
COC(=O)c1sc2nc(N3CCCCC3)c3c(c2c1N)CCCC3	–	inconclusive [inhibitor, partial curve]
COc1ccc(OCC(=O)NC(=S)Nc2ccccc2F)cc1	inactive: -15%	–
CS(=O)(=O)N1CCN(c2ccccc2NC(=O)c2ccc(-c3ccc(Br)cc3)o2)CC1	–	inconclusive [inhibitor, partial curve]
O=C(NCCOc1ccccc1)c1cc2ccccc2o1	–	inconclusive [inhibitor, single point]
Cc1ccc(NC(=O)CSc2nc3nc(C)cc(C)c3c(=O)[nH]2)cc1	–	inconclusive [inhibitor, single point]
COc1ccc2oc(C(=O)C3CC3)c(N)c2c1	–	inconclusive [inhibitor, partial curve]
CCOc1c2ccc(C(=O)N[C@H](C)C3CCCCC3)cc2nn1CCOC	–	inconclusive [inhibitor, partial curve]
CC(C)N1CCN(c2ccc(OC[C@@H]3CO[C@@](Cn4cncn4)(c4ccc(Cl)cc4Cl)O3)cc2)CC1	inactive: -4.04%	–
O=S(=O)(c1ccccc1)N1CCC[C@@]2(CCN(c3cccc(-c4ccccc4)c3)C2)C1	inactive: -11%	–
O=C1c2oc3ccccc3c(=O)c2C(c2cccc(O)c2)N1CCCN1CCOCC1 (stereo unspecified)	inactive: -5.83%	–
CCOC(=O)Cc1c(C)nc2c(-c3ccccc3)c(-c3ccccc3)[nH]n2c1=O	–	inconclusive [inhibitor, partial curve]
O=C(CCC1CCCC1)Nc1nnc(-c2ccc3c(c2)OCO3)s1	–	inconclusive [inhibitor, partial curve]
c1ccc(-n2nc3ccccc3n2)cc1	–	inconclusive [inhibitor, single point]
